In PubChem BioAssay AID504845 (National Center for Advancing Translational Sciences (NCATS), 2011):
Values joined by “and” are separate entries in the source; they are usually repeats but may differ in a detail not shown here. Equal entries are not always repeated. In all, about 390,000 compounds went through this assay and about 150 (0.038%) were called active. Inconclusive results (about 3%) are left out. Calls follow the shape of the dose curve; as a rule, active = well fitted inhibition curve with a large enough effect; inconclusive = small, poorly fitted or top-dose-only effect; inactive = no such curve, though single readings can be large or run the other way. This is a selection; strong and weak results do not stand in their true shares. The source holds several records for some structures; these can differ, active in one and inactive in another.

Target: Regulator of G-protein signaling 4 (Homo sapiens) (UniProt P49798)
Assay: Inhibitors of Regulator of G Protein Signaling (RGS) 4: qHTS; also: nearly all actives have a fitted effect of over 75% in size
Settings: Transcreener GDP fluorescence polarization, RGS4-accelerated GTP hydrolysis; series mostly up to 114 µM; activity change, negative = inhibition: at the top concentration
Method in brief: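 MLSMR compounds (23 nl, pin-transferred) preincubated 10 min at room temperature with a 500nM (2x) first reagent, then RGS4 at 900nM (2x) plus Transcreener GDP mix added; fluorescence polarization (620/688 nm) read before and after 90 min at 30 °C.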
% is scaled to controls: 0 for no effect and ±100 for the full control effect; potency is read from the fitted curve at half-maximal effect.

UniProt P49798, sequence (P49798 whole entry, looked up): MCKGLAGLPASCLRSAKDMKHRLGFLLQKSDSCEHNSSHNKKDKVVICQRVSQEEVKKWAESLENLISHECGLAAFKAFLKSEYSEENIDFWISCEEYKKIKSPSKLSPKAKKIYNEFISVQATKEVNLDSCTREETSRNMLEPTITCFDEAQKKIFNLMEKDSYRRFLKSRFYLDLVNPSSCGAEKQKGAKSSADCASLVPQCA

Activity change, negative = inhibition, inactive:
O=C(Cn1c[n+](CC(=O)c2ccc([N+](=O)[O-])cc2)cn1)c1ccc([N+](=O)[O-])cc1 13.1% [at 11.4 µM], NCCS -2.18%, C[C@@H]1C[C@H]2[C@@H]3CCC4=CC(=O)C=C[C@]4(C)[C@@]3(F)C(O)C[C@]2(C)[C@@]1(O)C(=O)CO (some centres undefined) 9.46%, C=CCN1CCc2c(cc(O)c(O)c2Cl)C(c2ccccc2)C1 (centres undefined) -14.2%, O=c1[nH]c(/C=C/c2cccnc2)c([N+](=O)[O-])c(=O)[nH]1 -48.4%, CCc1c(C)sc(NC(=O)c2cc(-c3ccc(OC)c(OC)c3)on2)c1C#N 9.24%, CSc1nc(N)c2ncn([C@H]3O[C@H](COP(=O)(O)OP(=O)(O)OP(=O)(O)O)[C@@H](O)[C@@H]3O)c2n1 329% [at 56.9 µM], COC(=O)c1cc2occc2n1Cc1nc(-c2ccc(Cl)cc2)oc1C 6.16%, CCOC(=O)C1=C(C)NC(SCC(=O)OC)=C(C#N)C1c1ccc(C(=O)OC)cc1 (centres undefined) -31.9%, Cc1cc(NS(=O)(=O)c2ccc(-c3ccccc3)cc2)no1 55.9%, CCN1CCN(C(=O)c2ccc3c(c2)N(Cc2ccccc2F)C(=O)c2ccccc2S3(=O)=O)CC1 -1.5%, COc1cc(/C=C(\C#N)C(=O)c2ccc(O)c(O)c2)cc(I)c1O -20.6%, OCC[C@H]1C[C@@H](O)[C@H](O)[C@]2(CCc3ccccc3CO2)O1 -15.3%, O=C(Nc1ccccc1C(=O)N1CCN(c2cccc(Cl)c2)CC1)C1=CSCCO1 64.4%, CC(C)n1ncc(N2CCOCC2)c(Cl)c1=O 55.6%, Clc1ccccc1CN1CCN(/N=C/C=C\c2ccco2)CC1 -42.2%, CCC1(O)CC2CN(CCc3c([nH]c4ccccc34)[C@@](C(=O)OC)(c3cc4c(cc3OC)N(C=O)C3[C@]45CCN4CC=C[C@@](CC)([C@@H](OC(C)=O)[C@]3(O)C(=O)OC)[C@H]45)C2)C1 (some centres undefined) 42.8% [at 56.9 µM], CC[N+]1(C)[C@@H]2CC[C@H]1CC(OC(=O)[C@H]1CCC(C(=O)OC3C[C@H]4CC[C@@H](C3)[N+]4(C)CC)(c3ccccc3)c3ccccc31)C2 (some centres undefined) -4.7%, CSc1nc(C)c(CCOC(=O)c2cccc(Cl)c2)c(=O)[nH]1 60.6%, NCCCCN 4.77% [at 56.9 µM], CC1(C)Oc2ccc(C#N)cc2[C@@H](OC2=CC(=O)CC2)[C@@H]1O 0% [at 56.9 µM], COc1ccc(C)cc1S(=O)(=O)N1CCN(S(=O)(=O)c2cc(C)ccc2OC)C(C)C1 (centres undefined) 61.5%, O=S(=O)(/N=C(\Sc1ccccc1)c1ccccc1)c1ccc(Cl)cc1 -45.3%, COc1ccc(Oc2coc3cc(OC(=O)c4cncc(Br)c4)ccc3c2=O)cc1 56.6%, CC/C=C\C/C=C\C/C=C\CCCCCCCC(=O)O 312% [at 56.9 µM], C(=C/c1nccc2c1[nH]c1ccccc12)/c1ccc2c(c1)OCO2 -12.4%, O=C(CCc1nc2ccccc2c(=O)[nH]1)NC1CCN(Cc2ccccc2)CC1 57.9%, Oc1cc(O)cc(/C=C/c2ccc(O)c(O)c2)c1 -17.9%, O=C1OCCC1Sc1nc(-c2ccccc2)cs1 (centres undefined) 55.1%, COc1ccc(OC)c(NC(=O)c2cccc3c2C(=O)N(C2CCCCC2)C3)c1 -6.42%, CS(=O)(=O)c1ccc(-c2cccc(NC(=O)COc3ccccc3)c2)nn1 64.4%, Cc1ccc(C(C(=O)NC(C)(C)C)N(C(=O)c2csnn2)c2ccccc2F)o1 (centres undefined) 61.8%, COc1ccccc1NC(=O)CCN1CCN(c2ccc(Cl)cc2)CC1 56.2%, N[C@H](C(=O)O)c1cccc(O)c1 424% [at 56.9 µM], Cc1ccc(Nc2c(-c3ccc(C)o3)nc3cccc(C)n23)cc1 -31.7%, CCOC(=O)[C@@H]1[C@H]2COc3cc(OC)ccc3[C@H]2N2C(=O)N(c3ccc(C(F)(F)F)cc3)C(=O)[C@]12C 28%, CCOC(=O)C1CCCC(NS(=O)(=O)c2ccc(NC(C)=O)cc2)C1 (centres undefined) -10.6%, COc1ccc(CNC(=O)c2nn(C)c3c2CS(=O)(=O)c2ccccc2-3)cc1 -7.16%, O=C1OC[C@@H]2CCCN2C(=O)[C@@H](CC(=O)N(CCO)Cc2ccccc2)C/C=C\C[C@@H]1Cc1ccc(F)cc1 -12.7%, CC(Cc1ccc(O)c(O)c1)C(C)Cc1ccc(O)c(O)c1 (centres undefined) -28.7%, CCCCn1c(N)c(N(CC)C(=O)c2cc(Br)ccc2Cl)c(=O)[nH]c1=O 59%

Potency, active:
CCCCC/C=C\CC1OC1CCCCCCCC(=O)O (centres undefined) 37.7 µM, O=C1Nc2ccc(I)cc2/C1=C/c1cc(Br)c(O)c(Br)c1 9.47 µM, CC[C@@H]1Cc2cc(O)ccc2C2=C1c1ccc(O)cc1C[C@H]2CC 23.8 µM, Cc1ccc(S(=O)(=O)/C=C/C#N)cc1 5.97 µM

Potency, inactive and 37.7 µM (active):
COc1cc(N)c(Cl)cc1C(=O)CCC1CCN(CCNS(C)(=O)=O)CC1

Potency, inactive:
COCCOC(=O)C1=C(C)NC(C)=C(C(=O)OC(C)C)C1c1cccc([N+](=O)[O-])c1 (centres undefined), O=C(CCCN1CCC(O)(c2ccc(Cl)cc2)CC1)c1ccc(F)cc1, CC(C[N+](C)(C)C)OC(N)=O (centres undefined), COc1ccc([C@@H]2Sc3ccccc3N(CCN(C)C)C(=O)[C@@H]2OC(C)=O)cc1, CN(C)c1nc(N)c(C(=O)N=C(N)N)nc1Cl, Cc1cccc(C2CN(C)CCc3c2cc(O)c(O)c3Cl)c1 (centres undefined), Nc1nc(Nc2ccccc2)nc2c1ncn2[C@@H]1O[C@H](CO)[C@@H](O)[C@H]1O

Potency, inactive and 21.2 µM (active):
C[C@@H](N)C(=O)O
